± gives the standard error. For some of these results: Variants at the floor of the assay are shown more often than the library holds them.
B1: glmS ribozyme (parent)
chain: AUAAAAGCGCCAGAACUACAGAAAUGUAGUUGACGAGGAGGAGGUUUAUCGAAUUUUCGGCGGAUGCCUCCAAA

Key:
Details in all cases: with glucosamine-6-phosphate
[1] = variants of: B1; test: self-cleavage kobs at 40 uM GlcN6P; higher = faster cleavage; RNA array
Summary of the method: (§1)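 Over ~14 h at 37 °C, tiles were imaged as glucosamine-6-phosphate (40 μM to 10 mM) in HEPES/KCl/Mg(OAc)2 buffer flowed across sequenced MiSeq chips. The chips carried barcoded ribozyme variants transcribed in situ by E. coli RNA polymerase and tracked with a hybridised Cy3 probe. After normalisation to baseline and to non-cleaving reference variants, one- or two-exponential decay fits of per-tile medians gave kobs. kcat and KM followed from weighted Michaelis–Menten fits across concentrations.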

[2] = variants of: B1; test: self-cleavage kobs at 10000 uM GlcN6P; higher = faster cleavage; RNA array
Summary of the method: as §1

[3] = variants of: B1; test: self-cleavage kobs at 2500 uM GlcN6P; higher = faster cleavage; RNA array
Summary of the method: as §1

[4] = variants of: B1; test: self-cleavage kobs at 640 uM GlcN6P; higher = faster cleavage; RNA array
Summary of the method: as §1

[5] = variants of: B1; test: self-cleavage kobs at 160 uM GlcN6P; higher = faster cleavage; RNA array
Summary of the method: as §1

Variant	self-cleavage kobs at 40 uM GlcN6P [1]	self-cleavage kobs at 10000 uM GlcN6P [2]	self-cleavage kobs at 2500 uM GlcN6P [3]	self-cleavage kobs at 640 uM GlcN6P [4]	self-cleavage kobs at 160 uM GlcN6P [5]
AUAAAAGCGCCAGGACUACAGAAAUGUAGUUGACGAUGAGGAGGUUUAUCGAAUUUUCGGCGGAUGCCUCCAAA [A14G G37U]	< 1e-05 s⁻¹				
AUAAAAGCGCCAGGACUACAGAAAUGUAGUUGACGGGGAGGAGGUUGAUCGAAUUUUCGGCUGAAGCCUCCAAA [A14G A36G U47G G62U U65A]	< 1e-05 s⁻¹	< 1e-05 s⁻¹			
AUAAAAGCGCCAGGACUACAGAAAUGUAGUUGACGAGGGGGAGCUUUAUCGAAUUUUCGGCGGAUGCUUCCAAA [A14G A39G G44C C68U]	< 1e-05 s⁻¹				
AUAAAAGCGCCAGGACUACAGAAAUGUAGUUGACGAGGAGGUGGUUUAUCGACUUUUAGGCGGAUGCCUCCAAA [A14G A42U A53C C58A]	< 1e-05 s⁻¹				
AUAAAAGCGCCAGUACUACAGAAAUGUAGUUGACGAGGAGGAGGUUUAUCGAAUUUUCGCCGGAUGCCUCCAAA [A14U G60C]	< 1e-05 s⁻¹		< 1e-05 s⁻¹		
AUAAAAGCGCCAGCACUACAGAAAUGUAGUUGACGAGGAAGAGGUUUAUCCAAUUUUAGGCGGAUGCCUCCAAA [A14C G40A G51C C58A]	< 1e-05 s⁻¹				
AUAAAAGCGCCAGACCUACAGAAAUGUAGUUGACGAGGAGGAGGUUUAUCGAAUUUUCGCCGGAUGCCUCCAAA [A15C G60C]	< 1e-05 s⁻¹	< 1e-05 s⁻¹	< 1e-05 s⁻¹	< 1e-05 s⁻¹	
AUAAAAGCGCCAGCACUACAGAAAUGUAGUUGACGAGGAUGAGGUCUAUCGAAUUUUCGGCGGAUGCUUCCAAA [A14C G40U U46C C68U]	< 1e-05 s⁻¹				
AUAAAAGCGCCAGGAACUACGAAAUGUAGUUGACGAGGAGGAGGUUUAUCGAAUUUUCGGCGGAUGCCUCCAAA [A14G C16A U17C A18U C19A A20C]	0.000161 ± 4.5e-05 s⁻¹	0.00427 ± 0.00081 s⁻¹			
AUAAAAGCGCCAGUACUACAGAAAUGUAGUUGACGAGGGGCAGGUUUAUCGAAUUUUCGGCGGAUGCCUCCAAA [A14U A39G G41C]	< 1e-05 s⁻¹		< 1e-05 s⁻¹		
AUAAAAGCGCCAGGACUACAGAAAUGUAGUUGACGGGGAGGAGGUUUAUCGCAUUUUGGGCGGAUGCCUCCAAA [A14G A36G A52C C58G]	< 1e-05 s⁻¹				
AUAAAAGCGCCAGACCUACAGAAAUGUAGUUGACGAGGAGGAGGUUUUUCGAAUUUUCGGCGGAUGCCUCCAAA [A15C A48U]	< 1e-05 s⁻¹				
AUAAAAGCGCCAGCACUACAGAAAUGUAGUUGACGAGGAGUAGGUUUAUCGAAUUUUCGGUGGAGGCCUCCAAA [A14C G41U C61U U65G]	< 1e-05 s⁻¹	< 1e-05 s⁻¹	< 1e-05 s⁻¹		
AUAAAAGCGCCAGUACUACAGAAAUGUAGUUGACGAGCAGGAGGUUUACCGAAUUUUCCGCGGAUGCCUCCAAA [A14U G38C U49C G59C]	< 1e-05 s⁻¹	< 1e-05 s⁻¹			
AUAAAAGCGCCAGGCCUACAGAAAUGUAGUCGACGAGGACGAGGUUUAUCGAAAUUUCGGCGGAUGCCUCCAAA [A14G A15C U31C G40C U54A]	< 1e-05 s⁻¹				
AUAAAAGCGCCAGACCUACAGAAAUGUAGUUGACGAGGAGCAGGUUUAUCGAAUUUUCGGCGGAUGCCUCCAAA [A15C G41C]	< 1e-05 s⁻¹	2.79e-05 ± 1.2e-05 s⁻¹			
AUAAAAGCGCCAGGACUACAGAAAUGUAGUUGACGAGGAGGAGGUCUAUCGAACUUUCGGCGCAUGCCUCCAAA [A14G U46C U54C G63C]	< 1e-05 s⁻¹				
AUAAAAGCGCCAGACCUACAGAAAUGUAGUUUCCGAGGAGGAGGUUUAUCGAAUUUUCGGCGGAUGCCUCCAAA [A15C G32U A33C]	< 1e-05 s⁻¹	< 1e-05 s⁻¹	< 1e-05 s⁻¹	< 1e-05 s⁻¹	< 1e-05 s⁻¹
AUAAAAGCGCCAGCACUACAGAAAUGUAGUCGACGAGGAGAAGGUUUAUCGAAUUUUCGGCGGAUGCCUCCAAA [A14C U31C G41A]	< 1e-05 s⁻¹				
AUAAAAGCGCCAGCACUACAGAAAUGUAGUUGACGAGGAGGAGUUUUAUCGAAUUUUCGGCGGAUGCGUCCAAA [A14C G44U C68G]	< 1e-05 s⁻¹	< 1e-05 s⁻¹			
AUAAAAGCGCCAGCACUACAGAAAUGUAGUUGACGAGGACGAGGUUUAUCGACUGUUCGGCGGAUCCCUCCAAA [A14C G40C A53C U55G G66C]	< 1e-05 s⁻¹				

Reference: the supplement of paper PMC7125110
